According to PubChem BioAssay AID1347165 (National Center for Advancing Translational Sciences (NCATS), 2019):
Hit rate of the full screen: of about 220,000 compounds, about 5,700 (2.6%) were called active. This list was built around the results that the source calls inconclusive (neither active nor inactive); the mix of calls is not that of the screen. The call rests on the fitted dose curve; in most records, active means well fitted inhibition curve with a large enough effect; inconclusive means small, poorly fitted or top-dose-only effect; inactive means no such curve, though single readings can be large or run the other way. Where the call is inconclusive, the potency comes from a doubtful curve fit.
Further: nearly all actives have a fitted effect of over 70% in size.
Potency means the concentration at half of the fitted maximal effect; tags describe the fitted curve by direction and shape.

These molecules were tested against Lysine-specific demethylase 5B (Homo sapiens) (UniProt Q9UGL1) (assay: Primary screen for KDM5B Histone Demethylases FDH-coupled qHTS). Conditions: FDH-coupled NADH fluorescence (FDH is formaldehyde dehydrogenase); series mostly up to 57.7 µM.
Chain of UniProt Q9UGL1 (Q9UGL1 whole entry, looked up): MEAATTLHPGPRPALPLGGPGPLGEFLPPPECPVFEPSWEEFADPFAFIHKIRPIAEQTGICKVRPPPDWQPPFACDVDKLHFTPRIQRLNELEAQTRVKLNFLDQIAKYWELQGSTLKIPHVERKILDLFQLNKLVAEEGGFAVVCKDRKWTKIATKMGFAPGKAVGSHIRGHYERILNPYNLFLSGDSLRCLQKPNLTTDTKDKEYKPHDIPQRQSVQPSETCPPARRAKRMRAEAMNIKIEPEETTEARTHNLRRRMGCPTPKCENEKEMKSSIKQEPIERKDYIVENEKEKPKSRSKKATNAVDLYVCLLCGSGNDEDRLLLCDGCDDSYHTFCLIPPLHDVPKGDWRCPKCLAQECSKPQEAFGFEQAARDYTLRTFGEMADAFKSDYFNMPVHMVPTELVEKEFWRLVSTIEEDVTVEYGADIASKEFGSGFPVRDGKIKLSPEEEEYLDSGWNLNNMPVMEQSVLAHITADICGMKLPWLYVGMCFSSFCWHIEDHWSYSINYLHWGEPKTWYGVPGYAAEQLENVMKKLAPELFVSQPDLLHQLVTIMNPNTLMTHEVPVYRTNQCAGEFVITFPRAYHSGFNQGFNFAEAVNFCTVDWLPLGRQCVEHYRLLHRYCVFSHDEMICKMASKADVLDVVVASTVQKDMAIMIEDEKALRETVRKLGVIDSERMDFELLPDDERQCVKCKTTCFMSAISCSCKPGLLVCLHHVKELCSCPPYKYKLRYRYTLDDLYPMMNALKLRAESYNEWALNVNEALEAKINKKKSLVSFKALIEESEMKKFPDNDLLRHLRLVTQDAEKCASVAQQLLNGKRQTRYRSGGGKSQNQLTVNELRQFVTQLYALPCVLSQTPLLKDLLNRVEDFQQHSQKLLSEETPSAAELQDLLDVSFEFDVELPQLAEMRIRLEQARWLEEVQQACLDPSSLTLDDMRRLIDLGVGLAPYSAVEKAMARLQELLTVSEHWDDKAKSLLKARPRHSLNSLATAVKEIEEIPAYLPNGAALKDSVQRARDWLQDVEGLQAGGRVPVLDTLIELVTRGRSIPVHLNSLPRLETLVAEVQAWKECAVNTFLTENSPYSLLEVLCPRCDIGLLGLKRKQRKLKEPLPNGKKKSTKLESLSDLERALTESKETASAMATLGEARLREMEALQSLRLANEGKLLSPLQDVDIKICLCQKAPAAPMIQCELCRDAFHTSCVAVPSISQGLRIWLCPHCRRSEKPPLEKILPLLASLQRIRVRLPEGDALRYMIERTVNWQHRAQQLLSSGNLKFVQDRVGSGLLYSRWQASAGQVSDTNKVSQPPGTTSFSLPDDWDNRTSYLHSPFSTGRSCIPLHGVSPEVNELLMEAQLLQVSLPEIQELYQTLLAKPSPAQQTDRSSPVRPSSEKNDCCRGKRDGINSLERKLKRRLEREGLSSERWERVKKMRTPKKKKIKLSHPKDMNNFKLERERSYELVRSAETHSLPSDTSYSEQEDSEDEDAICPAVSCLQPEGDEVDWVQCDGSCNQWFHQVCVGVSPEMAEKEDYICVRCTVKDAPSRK
Procedure, shortened: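 KDM5BΔAP (200 nM final) in 50 mM HEPES pH 7.5, 0.01% Tween-20 was preincubated 10 min at RT with compound over a concentration range. Substrate mix (H3K4me3 12.5 µM, α-KG 25 µM, Fe²⁺, ascorbate, NAD⁺, FDH) was added, and NADH fluorescence change over 30 min gave dose-response curves.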
In the case of `COC(=O)C1CCN(CC(=O)Nc2cc(C)c3c(=O)oc4ccccc4c3n2)CC1`, the Potency is reported as inconclusive: 3.55 µM [inhibitor, partial curve, poor fit].
For `COc1ccc(N(C(=O)c2cccc(C)c2)S(=O)(=O)c2ccc(C)cc2)cc1`, the Potency was inconclusive: 1.58 µM [inhibitor, full curve, poor fit].
In the case of `CCc1c(C)[nH]c2ccc(C)cc2c1=O`, the Potency is reported as inconclusive: 28.2 µM [inhibitor, partial curve, poor fit].
`Cc1ccc2c(c1)N(C(=O)C1CCN(S(=O)(=O)c3c(C)noc3/C=C/c3ccccc3F)CC1)CCO2` was tested, and the Potency was inconclusive: 2.24 µM [inhibitor, partial curve, poor fit].
`Cc1oc(-c2cccs2)nc1CC(=O)N(Cc1ccc2c(c1)OCO2)C1CCCC1` was tested, and the Potency was inconclusive: 39.8 µM [inhibitor, single point].
For `Cc1cccc(CCNC(=O)c2cnc3c(C)cccn3c2=O)c1`, the Potency was inconclusive: 28.2 µM [inhibitor, partial curve, poor fit].
`CC(C)CCN1CCc2[nH]nc(C(=O)N(C)C)c2C1` was tested, and the Potency was inconclusive: 22.4 µM [inhibitor, single point].
In the case of `COc1ccccc1CNC(=O)Cc1csc2nc(-c3ccccc3)cn12`, the Potency is reported as “inactive”.
With `CN1C[C@@H](NS(=O)(=O)Cc2ccccc2)C[C@H]1c1nc(-c2ccc3c(c2)OCO3)no1` the Potency was inconclusive: 35.5 µM [inhibitor, single point].
For `O=C(Cc1ccccc1Cl)N1CC=C(c2c[nH]c3ncccc23)CC1`, the Potency was inconclusive: 39.8 µM [inhibitor, single point].
In the case of `CN(C)c1nccnc1OC1CCN(S(=O)(=O)Cc2ccccc2)C1` (stereo unspecified), the Potency is reported as inconclusive: 15.8 µM [inhibitor, partial curve, poor fit].
In the case of `CCCCN(CC)C(=O)c1cc2c(=O)n3ccccc3nc2n1C`, the Potency is reported as inconclusive: 17.8 µM [inhibitor, partial curve, poor fit].
With `CCCCN1C(SCC(=O)N2CCCC2)=NS(=O)(=O)c2ccccc21` the Potency was inconclusive: 39.8 µM [inhibitor, single point].
For `Cc1nn(C)c2c1c(C(F)(F)F)cc(=O)n2CC(=O)N1CCCCC1C` (stereo unspecified), the Potency was inconclusive: 31.6 µM [inhibitor, partial curve, poor fit].
In the case of `O=C(COc1ccc(-c2ccccc2)cc1)NCCc1c[nH]c2ccccc12`, the Potency is reported as “inactive”.
`Cc1ccc2[nH]cc(CCNC(=O)/C=C/c3ccccc3)c2c1` was tested, and the Potency was “inactive”.
In the case of `O=C1CC2CCCC(C1)N2C(=O)c1cncc(Br)c1`, the Potency is reported as “inactive”.
For `CCc1cc(CN2C[C@H](NC(=O)c3ncn[nH]3)C[C@H]2C(=O)NC(C)C)on1`, the Potency was “inactive”.
With `C#CCNC(=O)CC[C@@H]1CNC(=O)[C@@H]2C[C@H](NC(=O)Nc3ccc(F)cc3F)CN12` the Potency was inconclusive: 31.6 µM [inhibitor, single point].
`Cc1ccc(-n2ncc(C(=O)Nc3ccc4c(c3)OCO4)c2C2CCN(C(=O)OC(C)(C)C)CC2)c(C)c1` was tested, and the Potency was inconclusive: 22.4 µM [inhibitor, single point].
In the case of `COc1ccc(-c2cc(Nc3cccc(OC)c3)nc(C)n2)cc1`, the Potency is reported as inconclusive: 22.4 µM [inhibitor, partial curve, poor fit].
With `COCc1nn2c3c(cnc2c1-c1cccc(Cl)c1)C(=O)CC(c1ccc(OC)c(OC)c1)C3` (stereo unspecified) the Potency was inconclusive: 22.4 µM [inhibitor, single point].
In the case of `CN(C)c1ccc(C2C=C(c3ccccc3)Nc3nnnn32)cc1` (stereo unspecified), the Potency is reported as inconclusive: 22.4 µM [inhibitor, partial curve, poor fit].
For `O=C(NCCn1ccc2ccc(Cl)cc21)C1CC(=O)N(c2n[nH]c3ccccc23)C1` (stereo unspecified), the Potency was inconclusive: 3.55 µM [inhibitor, full curve].
`Cc1ccc(-c2noc([C@@H]3Cc4nc[nH]c4CN3C(=O)Nc3ccccc3)n2)cc1` was tested, and the Potency was inconclusive: 12.6 µM [inhibitor, full curve, poor fit].
With `COc1cccc(C(=O)N2[C@@H]3CC[C@H]2CC(NC(=O)c2cnc(C)cn2)C3)c1` (stereo partly specified) the Potency was “inactive”.
`COc1ccc2[nH]c(=O)c(CCC(=O)NCCCN3CCCC(C)C3)cc2c1` (stereo unspecified) was tested, and the Potency was active: 31.6 µM.
`CCc1ccc(OCc2nc(-c3ccc(OC)c(OC)c3)no2)c(Br)c1` was tested, and the Potency was inconclusive: 25.1 µM [inhibitor, partial curve, poor fit].
In the case of `COc1cc(NC(=O)CCc2nc3cccnc3n2Cc2cccs2)cc(OC)c1OC`, the Potency is reported as inconclusive: 28.2 µM [inhibitor, partial curve, poor fit].
`CC1(C(=O)NC2CCCCC2)Cc2ccccc2C(=O)N1Cc1ccccc1Cl` (stereo unspecified) was tested, and the Potency was inconclusive: 31.6 µM [inhibitor, partial curve, poor fit].
`COCCN1C(=O)c2ccccc2C(C(=O)Nc2ccc(C)cc2Cl)C12CCCC2` (stereo unspecified) was tested, and the Potency was active: 28.2 µM.
With `CC(C)Cc1nnc(NC(=O)c2cccc3c2ccn3C)s1` the Potency was inconclusive: 22.4 µM [inhibitor, partial curve, poor fit].
`O=C(CCc1nc2cccnc2n1-c1ccccc1)Nc1ccc(Cl)c(Cl)c1` was tested, and the Potency was “inactive”.
In the case of `COc1ccc([S+](=O)([O-])c2nnn3c2nc(N2CCC(F)CC2)c2ccccc23)cc1`, the Potency is reported as active: 79.4 µM.
In the case of `Cc1cccc(Cn2c(SCC(=O)c3ccccc3)nc3c2c(=O)[nH]c(=O)n3C)c1`, the Potency is reported as “inactive”.
`Cc1cnc(CNCC2(O)CNCCOC2)cn1` (stereo unspecified) was tested, and the Potency was inconclusive: 22.4 µM [inhibitor, single point].
With `COc1ccc2cnn(CC(=O)Nc3cccc(F)c3)c(=O)c2c1OC` the Potency was inconclusive: 25.1 µM [inhibitor, single point].
In the case of `CC(=O)c1ccc(S(=O)(=O)N2CCN(CC#N)CC2)cc1`, the Potency is reported as “inactive”.
`Cc1nc2cc(N3CCCC(C(=O)O)C3)cnc2nc1C` (stereo unspecified) was tested, and the Potency was inconclusive: 8.91 µM [inhibitor, partial curve].
For `O=C(c1cc(F)cc(F)c1)N1CCSc2ccc(Cl)cc21`, the Potency was “inactive”.
In the case of `O=C(/C=C/c1cccc(O)c1)c1cccc(Br)c1`, the Potency is reported as inconclusive: 14.1 µM [inhibitor, partial curve, poor fit].
